# Data from the supplement of paper PMC8728848.
# The list shows a part of the results.
# B1: NPA (Narcissus pseudonarcissus), C0HM45 (protein)
# chain: DNILYSGETLSPGEFLNNGRYVFIMQEDCNLVLYDVDKPIWATNTGGLDRRCHLSMQSDGNLVVYSPRNNPIWASNTGGENGNYVCVLQKDRNVVIYGTARWATGTNIH
# Legend:
# Test in all cases: glycan array binding signal (z-score within array); higher = stronger binding
# Settings in all cases: glycan notation: IUPAC condensed, linker removed
# [1] = target: Fuc(a1-2)[GalNAc(b1-3)]Gal
# In short: (§1)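 Glycan array binding is given as a within-array Z-score, which can be read as non-binding when negative. The arrays, 3228 of them, came from the Consortium for Functional Glycomics database and were retained only where the protein sequence was available. Z-scores were averaged across arrays of the same protein sequence at different concentrations or buffers and across linkers.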
# [2] = target: Fuc(a1-3)GlcNAc
# In short: as §1
# [3] = target: Fuc(a1-3)[Gal(b1-4)]Glc6S
# In short: as §1
# [4] = target: Fuc(a1-3)[Gal(b1-4)]GlcNAc
# In short: as §1
# [5] = target: Fuc(a1-3)[Gal(b1-4)]GlcNAc(b1-2)Man
# In short: as §1
# [6] = target: Fuc(a1-3)[Gal(b1-4)]GlcNAc(b1-2)Man(a1-3)[Fuc(a1-3)[Gal(b1-4)]GlcNAc(b1-2)Man(a1-6)]Man(b1-4)GlcNAc(b1-4)GlcNAc
# In short: as §1
# [7] = target: Fuc(a1-3)[Gal(b1-4)]GlcNAc(b1-2)Man(a1-3)[Fuc(a1-3)[Gal(b1-4)]GlcNAc(b1-2)Man(a1-6)]Man(b1-4)GlcNAc(b1-4)[Fuc(a1-6)]GlcNAc
# In short: as §1
# [8] = target: Fuc(a1-3)[Gal(b1-4)]GlcNAc(b1-3)Gal(b1-3)[Fuc(a1-4)]GlcNAc
# In short: as §1
# [9] = target: Fuc(a1-3)[Gal(b1-4)]GlcNAc(b1-3)Gal(b1-4)[Fuc(a1-3)]GlcNAc
# In short: as §1
# [10] = target: Fuc(a1-3)[Gal(b1-4)]GlcNAc(b1-3)Gal(b1-4)[Fuc(a1-3)]GlcNAc(b1-3)Gal(b1-4)[Fuc(a1-3)]GlcNAc
# In short: as §1
# [11] = target: Fuc(a1-3)[Gal(b1-4)]GlcNAc(b1-3)GalNAc
# In short: as §1
# [12] = target: Fuc(a1-3)[Gal(b1-4)]GlcNAc(b1-4)Gal(b1-4)[Fuc(a1-3)]GlcNAc
# In short: as §1
# [13] = target: Fuc(a1-3)[Gal(b1-4)]GlcNAc(b1-4)Gal(b1-4)[Fuc(a1-3)]GlcNAc(b1-4)Gal(b1-4)[Fuc(a1-3)]GlcNAc
# In short: as §1
# [14] = target: Fuc(a1-3)[Gal(b1-4)]GlcNAc(b1-6)GalNAc
# In short: as §1
# [15] = target: Fuc(a1-3)[Gal(b1-4)]GlcNAc(b1-6)[Gal(b1-3)GlcNAc(b1-3)]Gal(b1-4)Glc
# In short: as §1
# [16] = target: Fuc(a1-3)[Gal(b1-4)]GlcNAc6S
# In short: as §1
# [17] = target: Fuc(a1-3)[Gal3S(b1-4)]Glc
# In short: as §1
# [18] = target: Fuc(a1-3)[Gal3S(b1-4)]GlcNAc
# In short: as §1
# [19] = target: Fuc(a1-3)[Gal3S(b1-4)]GlcNAc6S
# In short: as §1
# [20] = target: Fuc(a1-3)[GalNAc(b1-4)]GlcNAc
# In short: as §1
# [21] = target: Fuc(a1-3)[GalNAc(b1-4)]GlcNAc6S
# In short: as §1
# [22] = target: Fuc(a1-4)GlcNAc
# In short: as §1
# [23] = target: Fuc(b1-3)GlcNAc
# In short: as §1
# [24] = target: Gal(a1-2)Gal
# In short: as §1
# [25] = target: Gal(a1-3)Gal
# In short: as §1
# [26] = target: Gal(a1-3)Gal(b1-3)GlcNAc
# In short: as §1
# [27] = target: Gal(a1-3)Gal(b1-3)GlcNAc(b1-2)Man
# In short: as §1
# [28] = target: Gal(a1-3)Gal(b1-3)GlcNAc(b1-2)Man(a1-3)[Gal(a1-3)Gal(b1-3)GlcNAc(b1-2)Man(a1-6)]Man(b1-4)GlcNAc(b1-4)GlcNAc
# In short: as §1
# [29] = target: Gal(a1-3)Gal(b1-3)GlcNAc(b1-3)GalNAc
# In short: as §1
# [30] = target: Gal(a1-3)Gal(b1-3)GlcNAc(b1-6)GalNAc
# In short: as §1
# [31] = target: Gal(a1-3)Gal(b1-3)[Fuc(a1-4)]GlcNAc(b1-2)Man(a1-3)[Gal(a1-3)Gal(b1-3)[Fuc(a1-4)]GlcNAc(b1-2)Man(a1-6)]Man(b1-4)GlcNAc(b1-4)GlcNAc
# In short: as §1
# [32] = target: Gal(a1-3)Gal(b1-4)Glc
# In short: as §1
# [33] = target: Gal(a1-3)Gal(b1-4)GlcNAc
# In short: as §1
# [34] = target: Gal(a1-3)Gal(b1-4)GlcNAc(b1-2)Man
# In short: as §1
# [35] = target: Gal(a1-3)Gal(b1-4)GlcNAc(b1-2)Man(a1-3)[Gal(a1-3)Gal(b1-4)GlcNAc(b1-2)Man(a1-6)]Man(b1-4)GlcNAc(b1-4)GlcNAc
# In short: as §1
# [36] = target: Gal(a1-3)Gal(b1-4)GlcNAc(b1-3)GalNAc
# In short: as §1
# [37] = target: Gal(a1-3)Gal(b1-4)GlcNAc(b1-6)GalNAc
# In short: as §1
# [38] = target: Gal(a1-3)Gal(b1-4)[Fuc(a1-3)]GlcNAc
# In short: as §1
# [39] = target: Gal(a1-3)Gal(b1-4)[Fuc(a1-3)]GlcNAc(b1-2)Man(a1-3)[Gal(a1-3)Gal(b1-4)[Fuc(a1-3)]GlcNAc(b1-2)Man(a1-6)]Man(b1-4)GlcNAc(b1-4)GlcNAc
# In short: as §1
# [40] = target: Gal(a1-3)GalNAc
# In short: as §1
# [41] = target: Gal(a1-3)[Gal(a1-4)]Gal(b1-4)GlcNAc
# In short: as §1
# [42] = target: Gal(a1-4)Gal(b1-3)GlcNAc(b1-2)Man(a1-3)[Gal(a1-4)Gal(b1-3)GlcNAc(b1-2)Man(a1-6)]Man(b1-4)GlcNAc(b1-4)GlcNAc
# In short: as §1
# [43] = target: Gal(a1-4)Gal(b1-4)Glc
# In short: as §1
# [44] = target: Gal(a1-4)Gal(b1-4)GlcNAc
# In short: as §1
# [45] = target: Gal(a1-4)Gal(b1-4)GlcNAc(b1-2)Man(a1-3)[Gal(a1-4)Gal(b1-4)GlcNAc(b1-2)Man(a1-6)]Man(b1-4)GlcNAc(b1-4)GlcNAc
# In short: as §1
binder,measurement,setting,value
B1,glycan array binding signal (z-score),[1],-0.153
same,glycan array binding signal (z-score),[2],-0.154
same,glycan array binding signal (z-score),[3],-0.127
same,glycan array binding signal (z-score),[4],-0.136
same,glycan array binding signal (z-score),[5],-0.131
same,glycan array binding signal (z-score),[6],-0.132
same,glycan array binding signal (z-score),[7],-0.126
same,glycan array binding signal (z-score),[8],-0.122
same,glycan array binding signal (z-score),[9],-0.125
same,glycan array binding signal (z-score),[10],-0.147
same,glycan array binding signal (z-score),[11],-0.139
same,glycan array binding signal (z-score),[12],-0.161
same,glycan array binding signal (z-score),[13],-0.172
same,glycan array binding signal (z-score),[14],-0.098
same,glycan array binding signal (z-score),[15],-0.139
same,glycan array binding signal (z-score),[16],-0.129
same,glycan array binding signal (z-score),[17],-0.131
same,glycan array binding signal (z-score),[18],-0.164
same,glycan array binding signal (z-score),[19],-0.136
same,glycan array binding signal (z-score),[20],-0.148
same,glycan array binding signal (z-score),[21],-0.152
same,glycan array binding signal (z-score),[22],-0.156
same,glycan array binding signal (z-score),[23],-0.154
same,glycan array binding signal (z-score),[24],-0.155
same,glycan array binding signal (z-score),[25],-0.157
same,glycan array binding signal (z-score),[26],-0.133
same,glycan array binding signal (z-score),[27],-0.146
same,glycan array binding signal (z-score),[28],-0.095
same,glycan array binding signal (z-score),[29],-0.146
same,glycan array binding signal (z-score),[30],-0.144
same,glycan array binding signal (z-score),[31],0.645
same,glycan array binding signal (z-score),[32],-0.147
same,glycan array binding signal (z-score),[33],-0.158
same,glycan array binding signal (z-score),[34],-0.135
same,glycan array binding signal (z-score),[35],2.1
same,glycan array binding signal (z-score),[36],-0.141
same,glycan array binding signal (z-score),[37],-0.134
same,glycan array binding signal (z-score),[38],-0.149
same,glycan array binding signal (z-score),[39],-0.056
same,glycan array binding signal (z-score),[40],-0.132
same,glycan array binding signal (z-score),[41],-0.138
same,glycan array binding signal (z-score),[42],0.166
same,glycan array binding signal (z-score),[43],-0.141
same,glycan array binding signal (z-score),[44],-0.15
same,glycan array binding signal (z-score),[45],0.223
